Test results reported in paper PMC2941464.
These are yes or no findings as the source states them, for the method shown. In cells and extracts the contact can be indirect. Some entries that bind do so weakly or less than the wild type. For some assays here: Sequences can lack the tags named with a protein.

The chains behind the UniProt entries cited, without tags or fusion partners.
UniProt Q9UKV8: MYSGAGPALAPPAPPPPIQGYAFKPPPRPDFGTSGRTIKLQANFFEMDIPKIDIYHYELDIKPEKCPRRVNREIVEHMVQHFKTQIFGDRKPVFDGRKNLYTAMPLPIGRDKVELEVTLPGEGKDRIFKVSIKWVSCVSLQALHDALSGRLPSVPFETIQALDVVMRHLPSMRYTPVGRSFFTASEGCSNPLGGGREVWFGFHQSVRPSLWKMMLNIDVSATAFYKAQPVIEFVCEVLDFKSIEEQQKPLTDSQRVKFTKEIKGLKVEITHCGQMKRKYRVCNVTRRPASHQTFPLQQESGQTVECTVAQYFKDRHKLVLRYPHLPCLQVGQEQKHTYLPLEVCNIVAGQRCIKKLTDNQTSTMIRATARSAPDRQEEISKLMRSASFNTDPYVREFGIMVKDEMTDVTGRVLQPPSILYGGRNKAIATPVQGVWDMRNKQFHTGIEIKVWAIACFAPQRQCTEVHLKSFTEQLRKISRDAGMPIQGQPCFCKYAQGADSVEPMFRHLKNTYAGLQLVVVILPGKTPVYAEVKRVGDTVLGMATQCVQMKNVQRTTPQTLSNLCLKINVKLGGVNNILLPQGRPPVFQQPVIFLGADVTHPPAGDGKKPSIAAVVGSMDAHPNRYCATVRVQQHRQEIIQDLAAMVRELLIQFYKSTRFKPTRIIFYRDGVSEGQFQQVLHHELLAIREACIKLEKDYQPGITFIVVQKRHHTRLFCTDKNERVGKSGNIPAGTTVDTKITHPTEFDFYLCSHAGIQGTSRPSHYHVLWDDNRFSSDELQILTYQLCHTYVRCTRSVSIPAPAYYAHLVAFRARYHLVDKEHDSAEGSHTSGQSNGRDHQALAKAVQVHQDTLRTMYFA

Assays:
[1] = target: T1, QKI-7, endogenous in U343 cells (human (endogenous in U343)) (UniProt Q96PU8); assay: co-IP; endogenous proteins in U343 cell lysate (Triton X-100 lysis buffer); IP with anti-QKI-5, -6 or -7 antibodies (control IgG), blot with anti-Ago2; for QKI-6 also after 1 mg/ml RNase A, 2 U/100 µl RNase V1 or RNase inhibitor at 37°C for 1 hr
T1 sequence: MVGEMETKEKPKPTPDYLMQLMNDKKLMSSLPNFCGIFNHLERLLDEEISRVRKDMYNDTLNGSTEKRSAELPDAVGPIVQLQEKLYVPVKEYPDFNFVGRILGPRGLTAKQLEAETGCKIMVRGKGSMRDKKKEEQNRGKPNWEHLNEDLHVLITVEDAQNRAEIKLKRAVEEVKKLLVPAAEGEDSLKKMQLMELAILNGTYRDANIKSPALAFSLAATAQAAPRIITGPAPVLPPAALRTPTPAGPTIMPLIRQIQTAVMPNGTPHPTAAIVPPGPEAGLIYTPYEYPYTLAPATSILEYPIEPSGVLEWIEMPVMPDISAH

[2] = target: T2, QKI-6, endogenous in U343 cells (human (endogenous in U343)) (UniProt Q96PU8); assay: as above
T2 sequence: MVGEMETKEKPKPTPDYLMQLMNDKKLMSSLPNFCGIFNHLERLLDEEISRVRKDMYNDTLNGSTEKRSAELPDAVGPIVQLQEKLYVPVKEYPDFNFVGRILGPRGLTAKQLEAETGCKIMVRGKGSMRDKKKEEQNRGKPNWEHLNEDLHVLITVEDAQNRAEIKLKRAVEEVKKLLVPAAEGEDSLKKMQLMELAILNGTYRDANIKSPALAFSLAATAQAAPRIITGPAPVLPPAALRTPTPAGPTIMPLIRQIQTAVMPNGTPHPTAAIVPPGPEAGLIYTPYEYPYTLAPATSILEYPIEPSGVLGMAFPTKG

[3] = target: T3, QKI-5, endogenous in U343 cells (human (endogenous in U343)) (UniProt Q96PU8); assay: as above
T3 sequence: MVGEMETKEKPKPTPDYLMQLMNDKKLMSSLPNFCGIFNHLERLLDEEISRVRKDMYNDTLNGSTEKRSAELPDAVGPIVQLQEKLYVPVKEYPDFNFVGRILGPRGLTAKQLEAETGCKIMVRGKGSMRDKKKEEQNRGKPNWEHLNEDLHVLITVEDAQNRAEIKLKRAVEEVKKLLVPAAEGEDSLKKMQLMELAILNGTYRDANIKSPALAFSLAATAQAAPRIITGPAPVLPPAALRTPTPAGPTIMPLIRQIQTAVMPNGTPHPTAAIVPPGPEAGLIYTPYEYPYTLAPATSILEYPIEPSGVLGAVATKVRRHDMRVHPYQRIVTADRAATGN

[4] = target: T4, GFP-QKI:1-205 (UniProt Q9QYS9); assay: co-IP; HEK293 cells transfected with GFP-QKI-6 or its truncation mutants; lysate (Triton X-100 lysis buffer); IP with anti-GFP, blot with anti-Ago2
T4 sequence: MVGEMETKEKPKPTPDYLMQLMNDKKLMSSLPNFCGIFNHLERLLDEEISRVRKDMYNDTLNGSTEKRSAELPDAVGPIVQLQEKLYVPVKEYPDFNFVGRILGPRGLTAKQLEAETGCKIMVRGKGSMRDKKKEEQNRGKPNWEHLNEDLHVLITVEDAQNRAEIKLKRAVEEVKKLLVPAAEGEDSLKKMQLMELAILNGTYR

[5] = target: T5, GFP-QKI:1-180 (UniProt Q9QYS9); assay: as above
T5 sequence: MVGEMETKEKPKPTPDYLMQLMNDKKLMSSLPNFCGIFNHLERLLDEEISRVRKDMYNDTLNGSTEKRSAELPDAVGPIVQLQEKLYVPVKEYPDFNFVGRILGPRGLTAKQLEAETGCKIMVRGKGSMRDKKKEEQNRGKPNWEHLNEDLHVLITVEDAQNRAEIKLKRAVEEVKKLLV

| binding [1] | binding [2] | binding [3] | binding [4] | binding [5] | Substance |
| --- | --- | --- | --- | --- | --- |
| binds | binds | binds | – | – | argonaute 2 (Ago2), endogenous in U343 cells (from UniProt Q9UKV8 1-859) |
| – | – | – | binds | no binding | myc-tagged full-length Ago2 (from UniProt Q9UKV8 1-859) |
